# Target: T1, Aromatase (Homo sapiens, UniProt P11511)
# T1 sequence (P11511 whole entry): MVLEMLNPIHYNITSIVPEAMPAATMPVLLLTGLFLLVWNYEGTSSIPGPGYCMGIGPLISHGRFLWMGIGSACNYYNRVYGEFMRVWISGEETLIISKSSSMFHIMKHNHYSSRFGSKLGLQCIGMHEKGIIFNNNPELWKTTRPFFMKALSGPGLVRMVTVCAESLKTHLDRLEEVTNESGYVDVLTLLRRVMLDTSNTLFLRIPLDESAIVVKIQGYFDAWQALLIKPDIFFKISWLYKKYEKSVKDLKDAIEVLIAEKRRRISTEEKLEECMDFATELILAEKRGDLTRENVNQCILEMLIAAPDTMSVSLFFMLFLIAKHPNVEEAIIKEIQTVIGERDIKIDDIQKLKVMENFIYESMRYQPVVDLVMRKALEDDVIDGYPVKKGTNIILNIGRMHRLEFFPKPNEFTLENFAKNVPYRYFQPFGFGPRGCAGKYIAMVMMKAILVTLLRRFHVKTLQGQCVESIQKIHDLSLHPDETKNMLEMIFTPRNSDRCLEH
# Assay: in vitro
row,SMILES,inhibition at 36 µM
1,c1ccc(C2(n3ccnn3)c3ccccc3-c3ccccc32)cc1,30%
2,O=c1ccc2ccc(Cn3cncn3)cc2o1,60%

# Target: T1, Aromatase
# Assay: not given
row,SMILES,IC50
1,COc1ccc2c(Cc3ccc(O)cc3)cncc2c1O,29.8 µM
2,c1ccc(-c2cc(-c3cccnc3)nc(-c3cccnc3)c2)cc1,46.7 µM
3,COc1ccc(/C(=N/Nc2cnnc(Cl)c2Cl)c2ccccc2)cc1,5.6 µM
4,COc1ccc(-c2cc3c(=O)cc(O)oc3cc2SCc2ccncc2)cc1,0.22 µM
5,COc1ccc2c(Cc3cccc([N+](=O)[O-])c3)cncc2c1O,1.4 µM
6,O=[N+]([O-])c1cccc(Cc2nncc3ccccc23)c1,37.6 µM
7,O=[N+]([O-])c1ccc2c(c1)nc(-c1ccccn1)n2CCc1ccncc1,2.1 µM
8,COc1ccc(-c2cnnn2Cc2ccco2)cc1,3.1 µM
9,COc1ccc2c(c1)CCC(CC1C=NC=N1)=C2C (stereo unspecified),17 µM
